Experimental data from PMC6664820, “Novel natural and synthetic inhibitors of solute carriers SGLT1 and SGLT2” (Pharmacology Research & Perspectives, 2019).
Screen size: about 1,900 compounds; about 40 (2%) showed an effect of 50% or more. Some of the results follow.

Molecular target: human SGLT1 (hSGLT1) (human, UniProt P13866)
Assay: primary screen, percent of control activity; higher = less effect of the substance
Set-up: single well
Settings: 50 µM
Outline: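 Single-point screen at 50 µmol/L in CHO-hSGLT1 cells, with 160 µmol/L 1-NBD-glucose in glucose-free DMEM for 90 min at 37°C. Fluorescence from isopropanol extracts was calibrated, and CHO wild-type uptake was subtracted. Data are percent of uptake without compound.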

human SGLT1 (hSGLT1), sequence (P13866 whole entry, looked up): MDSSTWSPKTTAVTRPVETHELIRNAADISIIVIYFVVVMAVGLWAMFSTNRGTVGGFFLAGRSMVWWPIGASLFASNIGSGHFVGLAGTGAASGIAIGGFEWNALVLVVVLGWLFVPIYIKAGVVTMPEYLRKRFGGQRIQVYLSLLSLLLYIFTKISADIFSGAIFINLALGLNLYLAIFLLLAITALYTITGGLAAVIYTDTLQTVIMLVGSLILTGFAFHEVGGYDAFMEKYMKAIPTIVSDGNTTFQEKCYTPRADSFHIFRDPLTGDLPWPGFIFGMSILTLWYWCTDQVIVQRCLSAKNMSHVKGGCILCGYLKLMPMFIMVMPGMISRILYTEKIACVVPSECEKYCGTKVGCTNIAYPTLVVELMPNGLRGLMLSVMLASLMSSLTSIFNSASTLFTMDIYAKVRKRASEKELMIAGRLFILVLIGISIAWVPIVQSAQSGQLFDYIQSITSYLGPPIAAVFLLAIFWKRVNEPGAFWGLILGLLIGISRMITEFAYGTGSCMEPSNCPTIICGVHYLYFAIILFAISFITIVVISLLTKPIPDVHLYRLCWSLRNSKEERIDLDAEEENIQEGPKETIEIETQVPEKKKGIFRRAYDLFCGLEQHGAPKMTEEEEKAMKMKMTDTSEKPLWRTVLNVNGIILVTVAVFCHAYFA

Row | SMILES | NORMALIZED SGLT1 ACTIVITY (%)
1 | CCCCCCc1ccc(O)cc1O | 576%
2 | COc1ccc(-c2c(O)c3c(OC)c4c(cc3oc2=O)OC(C)(C)C=C4)cc1 | 184%
3 | CC(C)(C)NCC(O)c1ccccc1Cl.Cl (centres unmarked) | 104%
4 | CC[C@H]1CN2CCc3cc(OC)c(OC)cc3[C@@H]2C[C@@H]1C[C@H]1NCCc2cc(OC)c(OC)cc21.Cl.Cl | 137%
5 | O[C@H]1[C@H]2c3cc4c(cc3CN3CCC(=C[C@@H]1O)[C@H]23)OCO4 | 156%
6 | CCCCNC(=O)NS(=O)(=O)c1ccc(C)cc1 | 122%
7 | CN1C(C(=O)Nc2ccccn2)=C(O)c2sccc2S1(=O)=O | 181%
8 | COc1ccc(/C=C/c2cc(O)cc(O[C@@H]3O[C@H](CO)[C@@H](O)[C@H](O)[C@H]3O)c2)cc1O | 84%
9 | Cl.NCCc1ccccc1S(=O)(=O)F | 150%
10 | COC(=O)[C@H]1[C@H]2C[C@H]3c4[nH]c5cc(OC)ccc5c4CCN3C[C@H]2C[C@@H](OC(=O)c2cc(OC)c(OC)c(OC)c2)[C@@H]1OC | 345%
11 | CC(=O)[C@H]1CC[C@H]2[C@@H]3C[C@H](C)C4=CC(=O)CC[C@]4(C)[C@H]3[C@@H](O)C[C@]12C | 184%
12 | COC(=O)c1c(C)cc(O)cc1O | 184%
13 | CCc1cccc2c3c([nH]c12)C(CC)(CC(=O)O)OCC3 (centres unmarked) | 123%
14 | C=C(C)c1cc2cc(C(C)=O)c(O)cc2o1 | 146%
15 | CC[C@H](CCC(C)[C@H]1CCC2C3CCC4C[C@@H](O)CC[C@]4(C)C3CC[C@@]21C)C(C)C (some centres unmarked) | 82%
16 | CC1(C)CC2C1CCC1(C)OC2(C)CCC1O (centres unmarked) | 126%
17 | CC(C)CCCC(C)C1CCC2C3CC[C@H]4CCCC[C@]4(C)C3CC[C@]12C (some centres unmarked) | 69%
18 | CC(C)=CCc1c(O)cc2oc(C)cc(=O)c2c1O | 260%
19 | COc1c(C)c2c(c(O)c1C/C=C(\C)CCC(=O)O)C(=O)OC2 | 194%
20 | CC[C@]12CCCN3CCc4c(n(c5ccccc45)C(=O)C1)[C@@H]32 | 108%
21 | CC1(C)CC[C@]2(C(=O)O)CC[C@]3(C)C(=CCC4[C@@]5(C)CC[C@@H](O)C(C)(C)C5CC[C@]43C)C2C1 (some centres unmarked) | 133%
22 | COc1cc(-c2coc3cc(O[C@@H]4O[C@H](CO)[C@@H](O)[C@H](O)[C@H]4O)c(OC)c(O)c3c2=O)cc(O)c1OC | 111%
23 | COc1c2c(cc3c1OCO3)CC[N+](C)=C2.[Cl-] | 98%
24 | COc1ccc(C(CN(C)C)C2(O)CCCCC2)cc1.Cl (centres unmarked) | 93%
25 | NC(=O)NC(=O)Cc1ccccc1 | 137%
26 | C=C[C@@](C)(O)CCC1C(=C)C[C@H](OC(C)=O)C2C(C)(C)CCCC12C (some centres unmarked) | 128%
